In the supplement of paper PMC8728848:
This is one part of the list.

Legend:
Test in all cases: glycan array binding signal (z-score within array); higher = stronger binding
Conditions in all cases: glycan notation: IUPAC condensed, linker removed
[1] = target: Neu5Ac(a2-8)Neu5Ac
Outline: (§1)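 Glycan array binding is given as a within-array Z-score, which can be read as non-binding when negative. The arrays, 3228 of them, came from the Consortium for Functional Glycomics database and were retained only where the protein sequence was available. Z-scores were averaged across arrays of the same protein sequence at different concentrations or buffers and across linkers.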

[2] = target: Neu5Ac(a2-8)Neu5Ac(a2-3)Gal(b1-3)GalNAc(b1-4)[Neu5Ac(a2-3)]Gal(b1-4)Glc
Outline: as §1

[3] = target: Neu5Ac(a2-8)Neu5Ac(a2-3)Gal(b1-3)GalNAc(b1-4)[Neu5Ac(a2-8)Neu5Ac(a2-3)]Gal(b1-4)Glc
Outline: as §1

[4] = target: Neu5Ac(a2-8)Neu5Ac(a2-3)Gal(b1-4)Glc
Outline: as §1

[5] = target: Neu5Ac(a2-8)Neu5Ac(a2-3)Gal(b1-4)GlcNAc
Outline: as §1

[6] = target: Neu5Ac(a2-8)Neu5Ac(a2-3)[Gal(b1-3)GalNAc(b1-4)]Gal(b1-4)Glc
Outline: as §1

[7] = target: Neu5Ac(a2-8)Neu5Ac(a2-3)[GalNAc(b1-4)]Gal(b1-4)Glc
Outline: as §1

[8] = target: Neu5Ac(a2-8)Neu5Ac(a2-8)Neu5Ac
Outline: as §1

[9] = target: Neu5Ac(a2-8)Neu5Ac(a2-8)Neu5Ac(a2-3)Gal(b1-4)Glc
Outline: as §1

[10] = target: Neu5Ac(a2-8)Neu5Ac(a2-8)Neu5Ac(a2-3)[Gal(b1-3)GalNAc(b1-4)]Gal(b1-4)Glc
Outline: as §1

[11] = target: Neu5Ac(a2-8)Neu5Ac(a2-8)Neu5Ac(a2-3)[GalNAc(b1-4)]Gal(b1-4)Glc
Outline: as §1

[12] = target: Neu5Ac(a2-8)Neu5Ac(a2-8)Neu5Ac(a2-8)Neu5Ac(a2-3)[GalNAc(b1-4)]Gal(b1-4)Glc
Outline: as §1

[13] = target: Neu5Ac(a2-8)Neu5Gc(a2-3)Gal(b1-4)GlcNAc
Outline: as §1

[14] = target: Neu5Ac(b2-6)Gal(b1-4)GlcNAc
Outline: as §1

[15] = target: Neu5Ac(b2-6)GalNAc
Outline: as §1

[16] = target: Neu5Ac9Ac(a2-3)Gal(b1-3)GlcNAc
Outline: as §1

[17] = target: Neu5Ac9Ac(a2-3)Gal(b1-4)GlcNAc
Outline: as §1

[18] = target: Neu5Ac9Ac(a2-6)Gal(b1-4)GlcNAc
Outline: as §1

[19] = target: Neu5Gc(a2-3)Gal(b1-3)GlcNAc
Outline: as §1

[20] = target: Neu5Gc(a2-3)Gal(b1-3)[Fuc(a1-4)]GlcNAc
Outline: as §1

[21] = target: Neu5Gc(a2-3)Gal(b1-4)Glc
Outline: as §1

[22] = target: Neu5Gc(a2-3)Gal(b1-4)GlcNAc
Outline: as §1

[23] = target: Neu5Gc(a2-3)Gal(b1-4)GlcNAc(b1-3)Gal(b1-4)GlcNAc(b1-2)Man(a1-3)[Neu5Gc(a2-3)Gal(b1-4)GlcNAc(b1-3)Gal(b1-4)GlcNAc(b1-2)Man(a1-6)]Man(b1-4)GlcNAc(b1-4)GlcNAc
Outline: as §1

[24] = target: Neu5Gc(a2-3)Gal(b1-4)[Fuc(a1-3)]GlcNAc
Outline: as §1

[25] = target: Neu5Gc(a2-6)Gal(b1-4)GlcNAc
Outline: as §1

[26] = target: Neu5Gc(a2-6)GalNAc
Outline: as §1

[27] = target: Neu5Gc(a2-8)Neu5Ac(a2-3)Gal(b1-4)GlcNAc
Outline: as §1

[28] = target: Neu5Gc(a2-8)Neu5Gc(a2-3)Gal(b1-4)GlcNAc
Outline: as §1

[29] = target: Neu5Gc(a2-8)Neu5Gc(a2-3)Gal(b1-4)GlcNAc(b1-3)Gal(b1-4)GlcNAc
Outline: as §1

[30] = target: Neu5Gc(a2-8)Neu5Gc(a2-6)Gal(b1-4)GlcNAc
Outline: as §1

[31] = target: Neu5Gc(b2-6)Gal(b1-4)GlcNAc
Outline: as §1

B1: DC-ASGPR L+GEE (Homo sapiens) (protein)
chain: MTRTYENFQYLENKVKVQGFKNGPLPLQSLLQRLRSGPCHLLLSLGLGLLLLVIICVVGFQNSKFQRDLVTLRTDFSNFTSNTVAEIQALTSQGSSLEETIASLKAEVEGFKQERQAGVSELQEHTTQKAHLGHCPHCPSVCVPVHSEMLLRVQQLVQDLKKLTCQVATLNNNGEEASTEGTCCPVNWVEHQDSCYWFSHSGMSWAEAEKYCQLKNAHLVVINSREEQNFVQKYLGSAYTWMGLSDPEGAWKWVDGTDYATGFQNWKPGQPDDWQGHGLGGGEDCAHFHPDGRWNDDVCQRPYHWVCEAGLGQTSQESH
glycan array binding signal (z-score) [1]: -0.098
glycan array binding signal (z-score) [2]: -0.654
glycan array binding signal (z-score) [3]: -0.084
glycan array binding signal (z-score) [4]: -0.07
glycan array binding signal (z-score) [5]: -0.433
glycan array binding signal (z-score) [6]: 0.544
glycan array binding signal (z-score) [7]: 1.13
glycan array binding signal (z-score) [8]: -0.128
glycan array binding signal (z-score) [9]: 0.408
glycan array binding signal (z-score) [10]: -0.246
glycan array binding signal (z-score) [11]: 0.514
glycan array binding signal (z-score) [12]: 0.888
glycan array binding signal (z-score) [13]: -0.496
glycan array binding signal (z-score) [14]: -0.17
glycan array binding signal (z-score) [15]: -0.359
glycan array binding signal (z-score) [16]: -0.517
glycan array binding signal (z-score) [17]: 0.24
glycan array binding signal (z-score) [18]: -0.41
glycan array binding signal (z-score) [19]: -0.017
glycan array binding signal (z-score) [20]: 0.067
glycan array binding signal (z-score) [21]: -0.047
glycan array binding signal (z-score) [22]: -0.119
glycan array binding signal (z-score) [23]: 0.641
glycan array binding signal (z-score) [24]: 0.026
glycan array binding signal (z-score) [25]: -0.325
glycan array binding signal (z-score) [26]: 0.937
glycan array binding signal (z-score) [27]: -0.302
glycan array binding signal (z-score) [28]: -0.146
glycan array binding signal (z-score) [29]: -0.458
glycan array binding signal (z-score) [30]: -0.204
glycan array binding signal (z-score) [31]: -0.604
